Data on two molecules can be found in PMC10377357 (2023).

Substitutions are numbered along the chain they refer to. No constants are given. Whether binding was seen depends on the method and setting. Some entries that bind do so weakly or less than the wild type.

What all share (experiment): two-hybrid; Yeast strain PJ69-4A; Rps2 variants N- or C-terminally fused to the Gal4 DNA-binding domain, Pse1 or Pse1.302C C-terminally fused to the Gal4 activation domain, 2µ high-copy plasmids; growth on -HLT (weak) and -ALT (strong), 3 days at 30 °C
For experiment [1], the target named is T1, Rps2(76–145)-G4BD (S. cerevisiae) (UniProt P25443).
T1 sequence: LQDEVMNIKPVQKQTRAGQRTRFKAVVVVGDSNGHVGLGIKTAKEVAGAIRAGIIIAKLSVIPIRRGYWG

In experiment [2] the target is T2, Rps2-G4BD (S. cerevisiae) (UniProt P25443).
T2 sequence: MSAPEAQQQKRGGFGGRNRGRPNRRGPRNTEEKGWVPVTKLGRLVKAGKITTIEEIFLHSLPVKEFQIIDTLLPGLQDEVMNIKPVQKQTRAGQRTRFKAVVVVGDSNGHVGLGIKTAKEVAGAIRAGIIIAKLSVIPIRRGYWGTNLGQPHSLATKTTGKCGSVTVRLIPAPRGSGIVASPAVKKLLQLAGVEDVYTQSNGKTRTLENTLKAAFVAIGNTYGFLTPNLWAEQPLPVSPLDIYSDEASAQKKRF

For experiment [3], the target named is T3, Rps2(1–145)-G4BD (S. cerevisiae) (UniProt P25443).
T3 sequence: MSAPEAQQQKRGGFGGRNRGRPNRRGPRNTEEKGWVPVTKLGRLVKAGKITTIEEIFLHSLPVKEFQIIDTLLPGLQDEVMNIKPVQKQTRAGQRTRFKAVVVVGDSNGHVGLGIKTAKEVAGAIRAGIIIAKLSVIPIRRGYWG

Experiment [4] has as its target T4, G4BD-Rps2(1–145).R95R97K99>A (S. cerevisiae) (UniProt P25443).
T4 sequence: T3 sequence with R95A, R97A, K99A

Experiment [5] addresses T5, Rps2(76–145).R95R97K99>A-G4BD (S. cerevisiae) (UniProt P25443).
T5 sequence: T1 sequence with R20A, R22A, K24A

For experiment [6], the target named is T6, G4BD-Rps2(76–145) (S. cerevisiae) (UniProt P25443).
T6 sequence: T1 sequence

In experiment [7] the target is T7, G4BD-Rps2(1–145) (S. cerevisiae) (UniProt P25443).
T7 sequence: T3 sequence

The target in experiment [8] is T8, G4BD-Rps2 (S. cerevisiae) (UniProt P25443).
T8 sequence: T2 sequence

The target in experiment [9] is T9, Rps2(1–145).R95R97K99>A-G4BD (S. cerevisiae) (UniProt P25443).
T9 sequence: T3 sequence with R95A, R97A, K99A

The target of experiment [10] is T10, G4BD-Rps2.R95R97K99>A (S. cerevisiae) (UniProt P25443).
T10 sequence: T2 sequence with R95A, R97A, K99A

Experiment [11] deals with T11, G4BD-Rps2(76–145).R95R97K99>A (S. cerevisiae) (UniProt P25443).
T11 sequence: T1 sequence with R20A, R22A, K24A

The target of experiment [12] is T12, Rps2.R95R97K99>A-G4BD (S. cerevisiae) (UniProt P25443).
T12 sequence: T2 sequence with R95A, R97A, K99A

B1: Pse1.302C-G4AD (domain or fragment, UniProt P32337 302-1089)
chain: SNQNYGQTLVMVTLIMMTEVSIDDDDAAEWIESDDTDDEEEVTYDHARQALDRVALKLGGEYLAAPLFQYLQQMITSTEWRERFAAMMALSSAAEGCADVLIGEIPKILDMVIPLINDPHPRVQYGCCNVLGQISTDFSPFIQRTAHDRILPALISKLTSECTSRVQTHAAAALVNFSEFASKDILEPYLDSLLTNLLVLLQSNKLYVQEQALTTIAFIAEAAKNKFIKYYDTLMPLLLNVLKVNNKDNSVLKGKCMECATLIGFAVGKEKFHEHSQELISILVALQNSDIDEDDALRSYLEQSWSRICRILGDDFVPLLPIVIPPLLITAKATQDVGLIEEEEAANFQQYPDWDVVQVQGKHIAIHTSVLDDKVSAMELLQSYATLLRGQFAVYVKEVMEEIALPSLDFYLHDGVRAAGATLIPILLSCLLAATGTQNEELVLLWHKASSKLIGGLMSEPMPEITQVYHNSLVNGIKVMGDNCLSEDQLAAFTKGVSANLTDTYERMQDRHGDGDEYNENIDEEEDFTDEDLLDEINKSIAAVLKTTNGHYLKNLENIWPMINTFLLDNEPILVIFALVVIGDLIQYGGEQTASMKNAFIPKVTECLISPDARIRQAASYIIGVCAQYAPSTYADVCIPTLDTLVQIVDFPGSKLEENRSSTENASAAIAKILYAYNSNIPNVDTYTANWFKTLPTITDKEAASFNYQFLSQLIENNSPIVCAQSNISAVVDSVIQALNERSLTEREGQTVISSVKKLLGFLPSSDAMAIFNRYPADIMEKVHKWFA
With B1, the binding result in experiment [1] is reported as “binds”; in experiment [2], “binds”; in experiment [3] it was “binds”; in experiment [4] it was “binds”; in [5] it was “binds weakly”; in experiment [6] it was “binds”. For the same molecule, the binding result in experiment [7] is listed as “binds”; in [8], “binds”; in experiment [9] it was “binds”; in experiment [10], “binds”; in [11], “binds weakly”; in experiment [12] it was “binds”.

B2: full-length Pse1-G4AD (protein, UniProt P32337 1-1089)
chain: MSALPEEVNRTLLQIVQAFASPDNQIRSVAEKALSEEWITENNIEYLLTFLAEQAAFSQDTTVAALSAVLFRKLALKAPPSSKLMIMSKNITHIRKEVLAQIRSSLLKGFLSERADSIRHKLSDAIAECVQDDLPAWPELLQALIESLKSGNPNFRESSFRILTTVPYLITAVDINSILPIFQSGFTDASDNVKIAAVTAFVGYFKQLPKSEWSKLGILLPSLLNSLPRFLDDGKDDALASVFESLIELVELAPKLFKDMFDQIIQFTDMVIKNKDLEPPARTTALELLTVFSENAPQMCKSNQNYGQTLVMVTLIMMTEVSIDDDDAAEWIESDDTDDEEEVTYDHARQALDRVALKLGGEYLAAPLFQYLQQMITSTEWRERFAAMMALSSAAEGCADVLIGEIPKILDMVIPLINDPHPRVQYGCCNVLGQISTDFSPFIQRTAHDRILPALISKLTSECTSRVQTHAAAALVNFSEFASKDILEPYLDSLLTNLLVLLQSNKLYVQEQALTTIAFIAEAAKNKFIKYYDTLMPLLLNVLKVNNKDNSVLKGKCMECATLIGFAVGKEKFHEHSQELISILVALQNSDIDEDDALRSYLEQSWSRICRILGDDFVPLLPIVIPPLLITAKATQDVGLIEEEEAANFQQYPDWDVVQVQGKHIAIHTSVLDDKVSAMELLQSYATLLRGQFAVYVKEVMEEIALPSLDFYLHDGVRAAGATLIPILLSCLLAATGTQNEELVLLWHKASSKLIGGLMSEPMPEITQVYHNSLVNGIKVMGDNCLSEDQLAAFTKGVSANLTDTYERMQDRHGDGDEYNENIDEEEDFTDEDLLDEINKSIAAVLKTTNGHYLKNLENIWPMINTFLLDNEPILVIFALVVIGDLIQYGGEQTASMKNAFIPKVTECLISPDARIRQAASYIIGVCAQYAPSTYADVCIPTLDTLVQIVDFPGSKLEENRSSTENASAAIAKILYAYNSNIPNVDTYTANWFKTLPTITDKEAASFNYQFLSQLIENNSPIVCAQSNISAVVDSVIQALNERSLTEREGQTVISSVKKLLGFLPSSDAMAIFNRYPADIMEKVHKWFA
For the molecule B2, the binding entry in experiment [10] and in [12] was “no binding” each time.
